According to PubChem BioAssay AID1508624 (National Center for Advancing Translational Sciences (NCATS), 2021):
Out of some 48,000 compounds screened, about 120 (0.25%) were called active. About 4% were inconclusive and are not listed. Calls follow the shape of the dose curve; as a rule, active = well fitted activation curve with a large enough effect; inconclusive = small, poorly fitted or top-dose-only effect, or another doubt; inactive = no such curve, though single readings can be large or run the other way. The list shows a part of the results.

Test: Primary qHTS for Identification of Small Molecule Activators of Huntingtin-Antisense Promoter Activity; also: nearly all actives have a fitted effect of over 55% in size
Conditions: HEK293 HTT-AS promoter firefly luciferase reporter (activity 0% = vehicle and -100% = no light), 24 h; series mostly up to 57.5 µM; activity change, positive = activation: at the top concentration
Procedure, shortened: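 Quantitative HTS used concentration series of up to 57.5 uM final on HEK293 luciferase reporter cells, 24 h at 37 degrees C. Readout was Dual-Glo firefly luminescence.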

Row | SMILES | activity change, positive = activation
1 | COC(=O)c1ccccc1-n1c(CCC(=O)O)ccc1-c1ccccc1 | inactive: 6.58%
2 | O=C(NCc1ccccc1Cl)c1cc2cccc3c2n1CCS3 | inactive: -42.9%
3 | COc1cccc(CNC(=O)c2ccc3c(c2)nc2n3CCC(C)C2)c1OC (centres undefined) | inactive: 4.46%
4 | CCOC(=O)C1CCCN(C(=O)c2[nH]c3ccccc3c2Sc2ccc(Cl)cc2)C1 (centres undefined) | inactive: -25.8%
5 | COc1ccc(C(=O)NCC(c2ccco2)S(=O)(=O)c2cccs2)cc1OC (centres undefined) | inactive: -17.6%
6 | Cc1ccnc(NS(=O)(=O)c2ccc(NC(=O)c3nc(SC(C)C)ncc3Cl)cc2)n1 | inactive: -0.363%
7 | CCOc1ccc(CCNC(=O)c2cc3sc(CC)cc3n2C)cc1OCC | inactive: -18%
8 | Cc1ccc(S(=O)(=O)N2CCC(n3c(C)nc4cccnc43)CC2)c(C)c1 | inactive: -36.1%
9 | Cc1ccc(S(=O)(=O)c2cn(Cc3ccc(F)cc3)c3cc(N4CCCC4)c(F)cc3c2=O)cc1 | inactive: -5.81%
10 | Cc1ccc(CNC(=O)c2ccc(-c3nc(CS(=O)(=O)c4ccc(C)cc4)c(C)o3)cc2)cc1 | inactive: -16.2%
11 | COc1cc2c(cc1O)CCC1C2CC[C@@]2(C)C1CC[C@@H]2O (some centres undefined) | inactive: -33.6%
12 | CCc1ccccc1NC(=O)C(=O)NCCc1sc(-c2cccc(F)c2)nc1C | inactive: -17.3%
13 | Cc1[nH]c2ccccc2c1SCCNC(=O)c1ccccc1F | inactive: -19.1%
14 | COc1ccc(CCNC(=O)CSCc2nc(-c3ccc(OC)c(OC)c3)oc2C)cc1OC | inactive: -20.7%
15 | COc1cc(OC)c(NC(=O)c2ccc3c(Cl)c4c(nc3c2)CCCC4)cc1Cl | inactive: -5.86%
16 | CN1C(C)(C)CCCC1(C)C | inactive: -8.15%
17 | COCCNc1ccc(-c2nc(-c3cccc(C)c3)no2)cc1[N+](=O)[O-] | inactive: 17.8%
18 | CN1C(=O)c2ccccc2Sc2ccc(NC(=O)COc3ccc(Cl)cc3)cc21 | inactive: -40.3%
19 | CC1CCCN(C(=O)Cn2c(=O)n(CC3CCC(C(=O)NC(C)C)CC3)c(=O)c3sccc32)C1 (centres undefined) | inactive: -5.85%
20 | Cn1c(-n2cccc2)c(-c2c(-c3ccc(F)cc3)[nH]c3c2c(=O)[nH]c(=O)n3C)c(=O)[nH]c1=O | inactive: -11%

Row | SMILES | activity change, positive = activation
21 | COc1ccc(-n2ncc3c2ncn2nc(-c4ccc(Cl)cc4Cl)nc32)cc1 | inactive: -6.84%
22 | COc1cccc(OC)c1Cn1nnc2c(=O)[nH]c(C3CCN(C(=O)c4ccccc4)CC3)nc21 | inactive: -15.2%
23 | Cn1cc(-c2ccc3ncc(Cc4ccc5ncccc5c4)n3n2)cn1 | inactive: -9.33%
24 | COc1cccc(C2Nc3ccccc3-c3nnc(SCc4ccccc4)nc3O2)c1OC (centres undefined) | inactive: -5.64%
25 | Cc1ccc(S(=O)(=O)c2nc(-c3ccccc3)oc2SCC(=O)NC2CCCCC2)cc1 | inactive: 11.8%
26 | O=C(Nc1ccc(F)c(Cl)c1)C1CCCN1S(=O)(=O)c1ccc(F)cc1 (centres undefined) | inactive: -8.81%
27 | COc1ccc(NC(=O)C(CC(C)C)NS(=O)(=O)c2ccc3c(c2)oc(=O)n3C)cc1Cl (centres undefined) | inactive: -5.69%
28 | CCOc1ccc(NC(=O)Cn2c(=O)n(Cc3nc(-c4ccccc4)no3)c(=O)c3ccccc32)cc1 | inactive: -11%
29 | CCOC(=O)C1=C(CS(=O)(=O)c2ccc(C)c(C)c2)NC(=O)NC1c1ccccc1OCC (centres undefined) | inactive: -9.08%
30 | COc1ccc(N(CC(=O)N2CCN(c3cccc(OC)c3)CC2)S(=O)(=O)c2c(C)noc2C)cc1 | inactive: -28.9%
31 | O=C(Cn1c(=O)ccc2cc(S(=O)(=O)N3CCCC3)ccc21)NCc1ccc(F)cc1 | inactive: -15.7%
32 | CCOc1cc(C2c3c(oc4ccccc4c3=O)C(=O)N2Cc2ccccc2Cl)ccc1O (centres undefined) | inactive: -17.6%
33 | Cc1sc(NC(=O)COc2ccc(C(C)(C)C)cc2)c(C(=O)OC(C)C)c1C | inactive: -15.3%
34 | CCc1ccc(N2C(=O)CS(=O)(=O)C23C(=O)N(Cc2ccccc2F)c2ccccc23)cc1 (centres undefined) | inactive: -22.5%
35 | CCn1cc(C(=O)N2CCN(c3ccccc3)CC2)c(=O)c2cc(S(=O)(=O)N3CCC(C)CC3)ccc21 | inactive: -8.95%
36 | COc1ccc(C2CC(=O)c3c([nH]c(C(=O)OCCOc4ccccc4)c3C)C2)cc1OC (centres undefined) | inactive: -37.3%
37 | CCOc1ccc(NC(=O)c2cn3c4c(ccc(Cl)c4c2=O)OC(C)C3)cc1 (centres undefined) | inactive: -12.7%
38 | Cc1onc(-c2c(Cl)cccc2Cl)c1C(=O)N[C@@H]1C(=O)N2[C@@H]1SC(C)(C)[C@@H]2C(=O)O | inactive: -11.7%
39 | COc1cccc(CNC(=O)c2cccn2-c2nnc(N3CCCC3)s2)c1 | inactive: -4.45%
40 | CCN1CCN(C(=O)c2cnn(-c3cccc(C)c3)c2C2CCN(C(=O)OC(C)(C)C)CC2)CC1 | inactive: 8.18%

Row | SMILES | activity change, positive = activation
41 | Cc1cc(NC(=O)Nc2ccc(N(C)C)cc2)c2cc(F)cc(F)c2n1 | inactive: -1.49%
42 | Cc1ccc(-c2noc(C3CC(=O)N(c4ccc5c(c4)OCCO5)C3)n2)cc1 (centres undefined) | inactive: -8.49%
43 | COc1ccc(CNC(=O)C2CCN(S(=O)(=O)c3cn(C)cn3)CC2)cc1 | inactive: -3.67%
44 | COc1ccc(NC(=O)N(Cc2ccco2)C2CCN(C(C)=O)CC2)c(OC)c1 | inactive: -17.7%
45 | Cc1cc(NC(=O)CN2C(=O)CSc3ccc(S(=O)(=O)N(C)C)cc32)ccc1Br | inactive: -8.87%
46 | CCOC(=O)c1c(NC(=O)c2nc(SC)ncc2Cl)sc(C)c1C | inactive: 1.98%
47 | CSc1ccc(CCNC(=O)c2ccc3c(c2)nc2n3CCOC2)cc1 | inactive: 3.13%
48 | CC1(C)Oc2ccc(C#N)cc2[C@@H](N2CCCC2=O)[C@@H]1O | inactive: -3.18%
49 | Cc1ccc(-n2c(SCC(=O)N3CCC(C)CC3)nc3c([nH]c4ccccc43)c2=O)cc1 | inactive: 25.4%
50 | CC(C)c1nnc(NC(=O)c2nc(S(=O)(=O)Cc3ccccc3)ncc2Cl)s1 | inactive: -94.3%
51 | COc1ccc(Cl)cc1NC(=O)CSc1cn(CC(=O)N2CCCC2)c2ccccc12 | inactive: -38.1%
52 | Cn1c(=O)n(CCCc2ccccc2)c(=O)c2c1nc1n2CCN1c1ccccc1 | inactive: -12.3%
53 | CCOC(=O)c1scc(-c2ccc(C)cc2)c1S(=O)(=O)Nc1ccc(F)c(F)c1 | inactive: -13.7%
54 | COc1ccc2c(c1)c(=O)c(C(=O)c1ccc(Cl)cc1)cn2CC(=O)Nc1ccc2c(c1)OCO2 | inactive: -7.83%
55 | CCN(Cc1ccccc1)C(=O)CCS(=O)(=O)c1ccc2c(c1)oc(=O)n2C | inactive: -9.95%
56 | Cc1c(Cl)cccc1NC(=O)NCCOCCn1c(=O)oc2ccccc21 | inactive: -21.9%
57 | CCOC(=O)N1CCc2c(sc(NCc3sccc3C)c2C(=O)Nc2ccccc2OCC)C1 | inactive: -8.69%
58 | CCOC(=O)c1ccc(NC(=O)CN2C(=O)CC(c3ccc(C)c(C)c3)=Nc3ccccc32)cc1 | inactive: 25.9%
59 | CCOc1ccc(CCNC(=O)c2ccc3c(c2)N(Cc2cccc(Cl)c2)C(=O)c2ccccc2S3(=O)=O)cc1OCC | inactive: -10.5%
